According to the RNAGym collection of RNA variant scans (doi:10.1093/nar/gkz1192):
The source gives no read counts; variants with many changes may rest on few reads.

B1: CPEB3 Ribozyme (parent)
chain: UAACAGGGGGCCACAGCAGAAGCGUUCACGUCGCAGCCCCUGUCAGAUUCUGGUGAAUCUGCGAAUUCUGCUGUAUAUCUC

Variants of: B1
Test: self-cleavage, relative activity (ratio to wild type); higher = more cleavage; in vitro, sequencing
Method in brief: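 Relative activity compares each variant's cleaved/total read fraction with that of the unmutated ribozyme. To get these fractions, barcoded CPEB3 ribozyme libraries from rounds of error-prone PCR were transcribed with T7 RNA polymerase for 5 hours at 37°C and then given 15 min of DNase I treatment before EDTA was added. The RNAs were reverse transcribed with template switching and sequenced on Illumina, and DNA sequencing linked barcodes to variants. A minimum of 5 reads applied, and three batches were averaged.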
In the case of A2G C11A C32G U49C U69G, the self-cleavage is reported as 0.06. Variant U1C U54C U60C has a self-cleavage of 0.23. In the case of U1C C44U A64G U66C, the self-cleavage is reported as 0.11. With A2G A13G A47G A56G U78C the self-cleavage was 0.1. Variant U1C A21G C59A U60A has a self-cleavage of 0.22. In the case of U1G G7U C29U U66C U69G A75G, the self-cleavage is reported as 0.04. A2G A3G G46A U48C U51C U60C showed a self-cleavage of 0.25. A2G A5U U58C gave a self-cleavage of 0.38. For U1C U51A C71U A77U, the self-cleavage was 0.8. A2G C11U A18G A21U U41A U43C A65G gave a self-cleavage of 0.04. For A2C A5G U49C U69A U80C, the self-cleavage was 0.09. With A2C A45G U72A the self-cleavage was 0.45. Variant A2G A18U A47G U74A has a self-cleavage of 0.62. U1C A35G U78A gave a self-cleavage of 1.44. For U1C A21G A35G A47U U51A G63C U66C, the self-cleavage was 0.89. Work on U1C C12G C40A U41A A47U U72C C81A yielded a self-cleavage of 0.02. U1G G22U U25G U26C A28C G53U showed a self-cleavage of 0.32. For U1C A21G C23G U58C A64G, the self-cleavage was 0.2. U1C U67C U69C U76C showed a self-cleavage of 0.23. Variant A2C G9A A20G A45U U69C A75U has a self-cleavage of 0.05. With A2G A15C G24A U25A U67C G70C the self-cleavage was 0.07. For A2G A18U U49C U80A, the self-cleavage was 0.33. A2G A5G A15G U26A C38G A64G gave a self-cleavage of 0.07. In the case of U1C A35U U60A A77U, the self-cleavage is reported as 0.08. With A2G A20U U43C U54G A56U the self-cleavage was 0.2. Work on A2G A13G U26C G61U U67G yielded a self-cleavage of 0.43. Variant U1C A28G U31A C50U U58C has a self-cleavage of 0.18. Variant A2G A15C G16U U26A U31A A45G has a self-cleavage of 0.04. With A2G A20C U54C U67C the self-cleavage was 0.16. U1C C27A A56C U58A U60G A64U showed a self-cleavage of 0.08. Variant U1C A20G U74C has a self-cleavage of 1.05. Variant U1C A35G U49A U76A has a self-cleavage of 1.25. With U1C C34A U48G U80C the self-cleavage was 0.23. With A2G C29A G63U the self-cleavage was 0.39. In the case of U1C G53U U66C, the self-cleavage is reported as 0.46. Variant A2C U49A U51A U58C U60A has a self-cleavage of 0.11. In the case of U1C G9U A21C G30A U43C, the self-cleavage is reported as 0.16. Work on U1C C27A A28G C34A C39U A45U yielded a self-cleavage of 0.14. For U1C G8C U26A U54C U78C U80C, the self-cleavage was 0.06. Work on U1C G10A U31C U43C yielded a self-cleavage of 0.18. Variant A2G A21G U25C C37U C44A A56G has a self-cleavage of 0.28. U1C U43C G61A gave a self-cleavage of 0.34. Variant A2G A13G A45G A56G U80C has a self-cleavage of 0.41. With A2G A5G U49A U72C the self-cleavage was 0.71. A2G A5U A28U C32U U49A U58C U66C gave a self-cleavage of 0.08. U1C U41C A65G showed a self-cleavage of 0.4. In the case of A2G A5G A13U A18U A28G C40G, the self-cleavage is reported as 0.45. U1G A45G U48A U58C U66C showed a self-cleavage of 0.09. For U1C U51A U54A G61C, the self-cleavage was 0.49. U1C A56G A64G U67C U74G showed a self-cleavage of 0.06. Work on U1C G7A A21G A28U A35G U58C yielded a self-cleavage of 0.04. With U1C A28G A65C the self-cleavage was 0.06. Work on A2G A21U A28G yielded a self-cleavage of 0.36. Variant U1C C17U U25C U51C A56G U60C G61A has a self-cleavage of 0.04. Variant A2G A18U A20G G30C A35U U72C has a self-cleavage of 0.04. With A2G A5G A35G A47U U72A the self-cleavage was 0.11. With U1C C29A G61C A64G G73C C79U the self-cleavage was 0.09. With A2G A18U U43C U58A U60C the self-cleavage was 0.1. With A2G A15G A18G A20G G55A the self-cleavage was 0.64. Variant A2C A3C U25C G73A A75U U78C has a self-cleavage of 0.28. Work on U1C C11A U25A A47U U66C U78A yielded a self-cleavage of 0.11. A2G A57U C59A U69C gave a self-cleavage of 0. Work on U1C C4A C12U U78A yielded a self-cleavage of 1.19. For U1C A21G C32U G33A A45G G52U U60C, the self-cleavage was 0.05. Work on A2C U26C U78C yielded a self-cleavage of 0.62. A2G A3G A15U U41A U60A U69C showed a self-cleavage of 0.11. A2G A28U U51A U74A gave a self-cleavage of 0.47. A2C C11A U41A U60A U78A showed a self-cleavage of 0.3. A2G A21G U25C U58C gave a self-cleavage of 0.05. For U1C A20G U60A A77G U78A, the self-cleavage was 0.23. A2G C14U U26C showed a self-cleavage of 0.8. In the case of U1C A28U U54C, the self-cleavage is reported as 0.41. In the case of U1C G30A A56G U60A U80A, the self-cleavage is reported as 0.04. Variant A2G C4A C39U U48C U60A has a self-cleavage of 0.07. With A2G A15U U25C U41A A47G U80C the self-cleavage was 0.06. A2G C4U C11U A64U U66C gave a self-cleavage of 0.09. U1C G8A A45G gave a self-cleavage of 0.19. Work on U1C G10A A21G G22C A28G U41C yielded a self-cleavage of 0.05. For U1C A35U U49A, the self-cleavage was 0.17. U1G U31A U43A U48C U49C A77U gave a self-cleavage of 0.12. Work on A2G C4A A65G U80C yielded a self-cleavage of 0.51. U1C U26A A56G gave a self-cleavage of 0.72. U1C A20G A45G U49A A65U gave a self-cleavage of 0.05. With A2G A13U C32A A47G the self-cleavage was 0.11. In the case of A2G A3U U26A, the self-cleavage is reported as 1.05. U1C U43C U48A U51A U80C gave a self-cleavage of 0.35. U1C U25C U43G U58G U72C U80A gave a self-cleavage of 0.09. For A2C A5G A13G U54A G61U U69C, the self-cleavage was 0.17. A2G A3G G30A U41A U60C U78C gave a self-cleavage of 0.1. U1C A20U A35G U48C U51A U60A showed a self-cleavage of 0.1. With A2C A3G U66C the self-cleavage was 0.34. Variant A2G A18C A56G U69A has a self-cleavage of 0.15. For U1C A18U U49C, the self-cleavage was 0.24. U1C U43A U49C A56G gave a self-cleavage of 1.12. Work on U1C A45G U54C U60C A65G yielded a self-cleavage of 0.49. A2G C23G U78C gave a self-cleavage of 0.26. With A2C C11U A28G U60A U76C the self-cleavage was 0.26. Work on U1C U25C U80C yielded a self-cleavage of 0.25. A2G A18U U25G A35G A65G G73C showed a self-cleavage of 0.07. In the case of U1C U26C U72G, the self-cleavage is reported as 0.17. Work on U1C A45U C62G yielded a self-cleavage of 0.26. Work on U1C U41C U80A yielded a self-cleavage of 1.08. Variant U1C U41C U80C has a self-cleavage of 1.01. Work on U1C A35G U41C U49C U72A U80C yielded a self-cleavage of 0.74. Work on A2C G8A G63A U72C yielded a self-cleavage of 0.38. For A2G A18U U43C A45U, the self-cleavage was 0.08. Variant U1C U26C A47G U51C A57G A64G has a self-cleavage of 0. U1C A28G A75G U80C gave a self-cleavage of 0.39. U1C G10A C40A A57G A64U showed a self-cleavage of 0.05. Variant U1G A18G U72A has a self-cleavage of 0.34. With U1C G8A A18G U51C G63U the self-cleavage was 0.06. In the case of A2G A15U A18U A21G U66A U72C, the self-cleavage is reported as 0.03. For A2G C32A U58C U60C U72A, the self-cleavage was 0.15. With U1C U49C U67C G73A C79U the self-cleavage was 0.12. In the case of A2G A45G U58C U76C, the self-cleavage is reported as 0.03. Work on U1C G16A A57G C59A yielded a self-cleavage of 0.12. In the case of U1C U26C C59A, the self-cleavage is reported as 0.07. For A2G A5U A15U C40U A75U, the self-cleavage was 0.66. U1C A56U U69C U72C gave a self-cleavage of 0.14. U1C A47C A57G showed a self-cleavage of 0.35. Variant A2G A5G A18U A20G U51A U72C has a self-cleavage of 0.17. Work on U1C G9A A15G U25A A28G yielded a self-cleavage of 0.85. U1C A47U U60C showed a self-cleavage of 0.08. For A2C A20G U25C U51A U58A A64U, the self-cleavage was 0.24. In the case of A2G A20U U43A A64U, the self-cleavage is reported as 0.08. In the case of A2G A15G G24A G30U U72A, the self-cleavage is reported as 0.08. In the case of U1C A20G C40A U49A U58G U60C U69C, the self-cleavage is reported as 0.03. In the case of U1C U43A U51A, the self-cleavage is reported as 0.98. Work on U1C G6C A65G U66C yielded a self-cleavage of 0.07. Variant U1C A35U U43C U66C has a self-cleavage of 0.08. Work on A2G A3G A18U C32U U41A U54A U80C yielded a self-cleavage of 0.17. With A2G A15G A35G U72C the self-cleavage was 1.05. In the case of U1C U43A U49C U66C, the self-cleavage is reported as 0.18. Work on U1C U25G A35G U48C U69G yielded a self-cleavage of 0.28. With U1C A35G U41C U48A the self-cleavage was 0.58. With A2C A5G A13G A18G G33A the self-cleavage was 0.46. In the case of A2G A35G U43C A64U, the self-cleavage is reported as 0.29. With U1C A35U C38U C68A the self-cleavage was 0.07. U1C G8A U41C U51G U69A U72C gave a self-cleavage of 0.05. U1C U54A A56G showed a self-cleavage of 0.82. Variant U1C G30A A35G A57G has a self-cleavage of 0.09. U1C G7A A57U U69A showed a self-cleavage of 0.18. With A2G A13G A18G U41C U49A U78A U80A the self-cleavage was 0.09. A2G A5C A13C showed a self-cleavage of 0.9. U1C C34U A35G gave a self-cleavage of 0.3. With U1G A20U U51A A65G U76C U80C the self-cleavage was 0.07. With A2G A28G A35U U41A A47U U49C U51A the self-cleavage was 0.08. U1G A20U U72A gave a self-cleavage of 0.14. Work on U1C A20G U26G U31C C32U yielded a self-cleavage of 0.06. Variant U1C C11G U31C U69A U74C C81A has a self-cleavage of 0.15. Variant U1C A20G U51C U78C has a self-cleavage of 0.8. For U1C A20U U25C, the self-cleavage was 0.38. U1G C11U U54A A56G gave a self-cleavage of 0.21. For A2C A28G A45G, the self-cleavage was 0.5. U1C A28G U58A showed a self-cleavage of 0.28. U1C A64U A65G U69C gave a self-cleavage of 0.18. Variant U1C U51C U69A has a self-cleavage of 0.53. U1C C44A U69C showed a self-cleavage of 0.34. Work on A2G A3G C34G U72C yielded a self-cleavage of 0.78. For A2G A13G A18U A28U G33A U58A, the self-cleavage was 0.03. Variant A2G A21G U26C U49A A64G has a self-cleavage of 0.02. With A2G A15U A45G U72A the self-cleavage was 0.75. Work on A2G A15G A20G U41A A65G U80A yielded a self-cleavage of 0.47. With A2G A18U C23U the self-cleavage was 0.42. Variant U1C G33U C50A U74G has a self-cleavage of 0.07. In the case of U1C C40U G73A, the self-cleavage is reported as 1.23. Work on U1C A45G U80A yielded a self-cleavage of 0.72.
